According to the supplement of paper PMC4604168 (melanoma cell lines):
The list shows a part of the results. Many values rest on one well or one pass, so single values are uncertain.

Tests used:
Test in all cases: cell count relative to DMSO control; melanoma cells; higher = more viable cells
Settings in all cases: library dose: low library concentration; 72 h
MZ2-MEL = tested on: MZ2-MEL
MeWo = tested on: MeWo
RPMI7951 = tested on: RPMI7951
RVH-421 = tested on: RVH-421
SkMel28 = tested on: SkMel28
SkMel2 = tested on: SkMel2
SkMel30 = tested on: SkMel30
SkMel5 = tested on: SkMel5
UACC257 = tested on: UACC257
UACC62 = tested on: UACC62
WM115 = tested on: WM115
WM1716 = tested on: WM1716
WM1745 = tested on: WM1745
WM3526 = tested on: WM3526
WM3619 = tested on: WM3619
WM451Lu = tested on: WM451Lu
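Also: cell number obtained by counting DAPI-stained nuclei in high-throughput microscope images with image analysis software, screen run in 1,536-well plates.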

Structure (SMILES) | cell count (MZ2-MEL) [%] | cell count (MeWo) [%] | cell count (RPMI7951) [%] | cell count (RVH-421) [%] | cell count (SkMel28) [%] | cell count (SkMel2) [%] | cell count (SkMel30) [%] | cell count (SkMel5) [%] | cell count (UACC257) [%] | cell count (UACC62) [%] | cell count (WM115) [%] | cell count (WM1716) [%] | cell count (WM1745) [%] | cell count (WM3526) [%] | cell count (WM3619) [%] | cell count (WM451Lu) [%]
C[C@]1(O)C[C@@H](c2nc(-c3ccc4ccc(-c5ccccc5)nc4c3)c3c(N)nccn32)C1 + Cc1cc(SCc2sc(-c3ccc(C(F)(F)F)c(F)c3)nc2C)ccc1OCC(=O)O [GW0742] (first compound 0.4 µM, partner dose 2 µM) | 103 | 85.4 | 85.4 | 104 | 92.2 | 81.1 | 75.3 | 84 | 68.5 | 90.1 | 112 | 102 | 85.2 | 87.1 | 105 | 110
CC1(C)CCC(c2ccc(Cl)cc2)=C(CN2CCN(c3ccc(C(=O)NS(=O)(=O)c4ccc(N[C@H](CCN5CCOCC5)CSc5ccccc5)c(S(=O)(=O)C(F)(F)F)c4)cc3)CC2)C1 + C/C(O)=C(\C#N)C(=O)Nc1cc(Br)ccc1Br [LFM-A13] (first compound 0.4 µM, partner dose 2 µM) | 94.3 | 76.3 | 45.4 | 68.9 | 77.4 | 85.6 | 54.1 | 51.3 | 58.7 | 63.1 | 72 | 71.4 | 8.39 | 71.9 | 86.1 | 69.3
Nc1ncn([C@H]2C[C@H](O)[C@@H](CO)O2)c(=O)n1 [decitabine] + C/C(O)=C(\C#N)C(=O)Nc1cc(Br)ccc1Br [LFM-A13] (first compound 0.1 µM, partner dose 2 µM) | 89.9 | 100 | 74.8 | 91.4 | 77.7 | 103 | 78.6 | 93.6 | 96.4 | 66.7 | 82.8 | 85.5 | 97.7 | 78.4 | 87.1 | 100
N#CC[C@H](C1CCCC1)n1cc(-c2ncnc3[nH]ccc23)cn1 [ruxolitinib] + O=C(Oc1ccc([N+](=O)[O-])cc1)N1CCC(C(O)(c2ccc3c(c2)OCO3)c2ccc3c(c2)OCO3)CC1 [JZL184] (first compound 1 µM, partner dose 1 µM) | 91 | 93.8 | 105 | 95.1 | 102 | 111 | 98.1 | 87.1 | 88.7 | 112 | 111 | 129 | 90.4 | 111 | 99.7 | 114
CCCS(=O)(=O)Nc1ccc(F)c(C(=O)c2c[nH]c3ncc(Cl)cc23)c1F + O=C(Oc1ccc([N+](=O)[O-])cc1)N1CCC(C(O)(c2ccc3c(c2)OCO3)c2ccc3c(c2)OCO3)CC1 [JZL184] (first compound 0.08 µM, partner dose 1 µM) | 84.2 | 95.3 | 125 | 77.7 | 85.3 | 90.2 | 93.8 | 107 | 81.2 | 62.2 | 85.8 | 104 | 109 | 50.5 | 98.9 | 108
O=C(/C=C/c1cccnc1)NCCCCC1CCN(C(=O)c2ccccc2)CC1 + O=C(Oc1ccc([N+](=O)[O-])cc1)N1CCC(C(O)(c2ccc3c(c2)OCO3)c2ccc3c(c2)OCO3)CC1 [JZL184] (first compound 0.01 µM, partner dose 1 µM) | 42.6 | 98.8 | 103 | 58.1 | 92.9 | 60.8 | 82.5 | 79.5 | 91.2 | 112 | 82.8 | 91.1 | 118 | 98.3 | 99 | 103
CCCCCCCCc1ccc(CCC(N)(CO)CO)cc1 [fingolimod] + O=C(Oc1ccc([N+](=O)[O-])cc1)N1CCC(C(O)(c2ccc3c(c2)OCO3)c2ccc3c(c2)OCO3)CC1 [JZL184] (first compound 2 µM, partner dose 1 µM) | 95.1 | 103 | 87.1 | 67 | 97.6 | 98.1 | 97.2 | 88.8 | 71.8 | 85.1 | 89.4 | 80 | 85.4 | 85.9 | 101 | 98.9
Nc1nc(F)nc2c1ncn2[C@@H]1O[C@H](CO)[C@@H](O)[C@@H]1O [fludarabine] + C/C(O)=C(\C#N)C(=O)Nc1cc(Br)ccc1Br [LFM-A13] (first compound 0.2 µM, partner dose 2 µM) | 103 | 37.6 | 88.8 | 77.6 | 74.7 | 6.78 | 22.8 | 61 | 104 | 99.5 | 101 | 109 | 107 | 28.5 | 128 | 40.3
CC1(C)CCC(c2ccc(Cl)cc2)=C(CN2CCN(c3ccc(C(=O)NS(=O)(=O)c4ccc(N[C@H](CCN5CCOCC5)CSc5ccccc5)c(S(=O)(=O)C(F)(F)F)c4)cc3)CC2)C1 + O=C(Oc1ccc([N+](=O)[O-])cc1)N1CCC(C(O)(c2ccc3c(c2)OCO3)c2ccc3c(c2)OCO3)CC1 [JZL184] (first compound 0.4 µM, partner dose 1 µM) | 87.8 | 77.8 | 46.8 | 91.8 | 79.8 | 98.8 | 82.4 | 65.8 | 118 | 83.6 | 79.5 | 78.3 | 10.8 | 87.9 | 82.9 | 49.7
C[C@]1(O)C[C@@H](c2nc(-c3ccc4ccc(-c5ccccc5)nc4c3)c3c(N)nccn32)C1 + C/C(O)=C(\C#N)C(=O)Nc1cc(Br)ccc1Br [LFM-A13] (first compound 0.4 µM, partner dose 2 µM) | 94.7 | 91.5 | 93.5 | 105 | 69.5 | 73.3 | 75.4 | 90.1 | 74 | 70.3 | 115 | 90.3 | 72.2 | 79.4 | 97.6 | 98.4
CC[C@]1(O)C[C@H]2CN(CCc3c([nH]c4ccccc34)[C@@](C(=O)OC)(c3cc4c(cc3OC)N(C=O)[C@H]3[C@@](O)(C(=O)OC)[C@H](OC(C)=O)[C@]5(CC)C=CCN6CC[C@]43[C@@H]65)C2)C1 [vincristine] + C/C(O)=C(\C#N)C(=O)Nc1cc(Br)ccc1Br [LFM-A13] (first compound 0.0001 µM, partner dose 2 µM) | 89 | 80.9 | 53.2 | 81.1 | 67.5 | 85.6 | 54.5 | 85.4 | 46 | 48.8 | 55.7 | 39 | 79.2 | 79.5 | 51.6 | 47.5
CCCS(=O)(=O)Nc1ccc(F)c(C(=O)c2c[nH]c3ncc(Cl)cc23)c1F + C/C(O)=C(\C#N)C(=O)Nc1cc(Br)ccc1Br [LFM-A13] (first compound 0.08 µM, partner dose 2 µM) | 87.2 | 92.8 | 103 | 73.9 | 65.4 | 99.9 | 82.3 | 104 | 70.2 | 79.2 | 108 | 104 | 98.3 | 57.2 | 94.2 | 99.8
CCCCCCCCCCCCCCCCCCOP(=O)([O-])OC1CC[N+](C)(C)CC1 [Perifosine] + Cc1cc(SCc2sc(-c3ccc(C(F)(F)F)c(F)c3)nc2C)ccc1OCC(=O)O [GW0742] (first compound 0.4 µM, partner dose 2 µM) | 104 | 107 | 74.9 | 98.8 | 118 | 105 | 118 | 107 | 125 | 106 | 98.7 | 88 | 83.6 | 90.5 | 95.7 | 100
OCc1c[nH]c2ccccc12 [Indole-3-carbinol] + C/C(O)=C(\C#N)C(=O)Nc1cc(Br)ccc1Br [LFM-A13] (first compound 0.8 µM, partner dose 2 µM) | 99.3 | 81.4 | 86.8 | 106 | 83.4 | 87.4 | 102 | 84.4 | 71.1 | 80.5 | 84.3 | 112 | 95.4 | 102 | 82.3 | 92.4
NC1(c2ccc(-c3nc4ccn5c(=O)[nH]nc5c4cc3-c3ccccc3)cc2)CCC1 + C/C(O)=C(\C#N)C(=O)Nc1cc(Br)ccc1Br [LFM-A13] (first compound 0.4 µM, partner dose 2 µM) | 106 | 96 | 100 | 90.5 | 49.1 | 86.5 | 64.5 | 101 | 90 | 77.4 | 74.5 | 81 | 105 | 57 | 98.6 | 75.8
O=C(O)[C@@H]1[O][Sb](=[O])([O][Sb]2(=[O])[O][C@H]([C@H](O)CO)[C@H](O)[C@H](C(=O)O)[O]2)[O][C@H]([C@H](O)CO)[C@@H]1O (some centres not stated) [stibogluconate] + O=C(Oc1ccc([N+](=O)[O-])cc1)N1CCC(C(O)(c2ccc3c(c2)OCO3)c2ccc3c(c2)OCO3)CC1 [JZL184] (first compound 2 µM, partner dose 1 µM) | 94.7 | 101 | 108 | 95.3 | 105 | 102 | 90.4 | 92.5 | 83.6 | 88.4 | 95.8 | 108 | 106 | 92.9 | 93 | 92.4
Cc1ccc(Nc2nccc(N(C)c3ccc4c(C)n(C)nc4c3)n2)cc1S(N)(=O)=O [Pazopanib] + Cc1cc(SCc2sc(-c3ccc(C(F)(F)F)c(F)c3)nc2C)ccc1OCC(=O)O [GW0742] (first compound 0.4 µM, partner dose 2 µM) | 74.3 | 98.9 | 87.8 | 97.1 | 98.3 | 95.5 | 91.6 | 76 | 97.5 | 99.9 | 94.6 | 92.6 | 87.8 | 83.4 | 85.3 | 95.4
